Reference: PMC6919601, “Identification of Plasmodium dipeptidyl aminopeptidase allosteric inhibitors by high throughput screening” (PLoS ONE, 2019)
Among all 110,000 compounds or so, about 230 (0.21%) showed an effect of 50% or more. Some of the results follow.

Biological target: DPAP1 (Plasmodium falciparum, UniProt Q8IIJ9)
Experiment: primary screen, percent inhibition; read by cleavage of a fluorogenic dipeptide substrate; higher = more effect of the substance
Set-up: species or system P. falciparum D10 trophozoite lysates; single well
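Further: 30 min substrate incubation versus DMSO and 10 µM JCP410 controls.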

Sequence of DPAP1 (Q8IIJ9 whole entry, looked up): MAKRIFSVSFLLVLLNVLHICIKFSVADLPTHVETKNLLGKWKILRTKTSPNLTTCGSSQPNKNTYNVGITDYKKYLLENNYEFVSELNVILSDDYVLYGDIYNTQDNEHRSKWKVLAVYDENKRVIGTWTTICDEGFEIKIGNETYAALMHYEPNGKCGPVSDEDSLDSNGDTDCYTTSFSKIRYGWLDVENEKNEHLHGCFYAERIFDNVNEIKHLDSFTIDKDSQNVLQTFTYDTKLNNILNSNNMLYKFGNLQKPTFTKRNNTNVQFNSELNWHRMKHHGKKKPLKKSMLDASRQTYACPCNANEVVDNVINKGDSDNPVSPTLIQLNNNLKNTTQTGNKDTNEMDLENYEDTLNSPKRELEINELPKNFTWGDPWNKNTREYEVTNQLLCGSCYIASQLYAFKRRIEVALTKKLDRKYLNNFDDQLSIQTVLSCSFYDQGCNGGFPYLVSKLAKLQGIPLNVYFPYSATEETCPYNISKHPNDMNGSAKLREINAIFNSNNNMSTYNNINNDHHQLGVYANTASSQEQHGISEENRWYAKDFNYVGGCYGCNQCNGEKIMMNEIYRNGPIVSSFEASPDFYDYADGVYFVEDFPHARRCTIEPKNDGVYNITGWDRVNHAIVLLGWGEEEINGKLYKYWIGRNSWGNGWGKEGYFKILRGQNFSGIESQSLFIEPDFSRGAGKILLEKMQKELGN

| Structure (SMILES) | % Inhibition @ 10 uM [%] |
| --- | --- |
| CCCCCC(=O)Nc1ccccc1C(=O)O | -0.25 |
| Cc1nc2nc(NCc3ccccc3F)nn2c(O)c1Cc1ccccc1 | 4.18 |
| Cc1cc(CNC(=O)C2CCCCC2)c2ccccc2n1 | 2.79 |
| CCCCNC(=O)CN(c1ccc(OC)cc1)S(C)(=O)=O | 12.1 |
| CC(=O)c1cccc(NC(=O)c2cnn(C)c2)c1 | 0.206 |
| Cc1ccc(OCCCCCN2CCNCC2)cc1 | -0.473 |
| CCOc1ccc(C=C2C(=O)NC(=S)NC2=O)c(OCC)c1 | 1.29 |
| COC(=O)C1=C(C)N(CC2CCCO2)C(=O)/C1=C\c1cc(OC)c(OC)c(OC)c1 (centres unmarked) | 0.147 |
| Cc1cc(C)n(C(=O)c2cc(-c3ccc(C)o3)nc3ccccc23)n1 | -1.1 |
| C=CCSC1=C(C#N)C(c2ccccc2Cl)CC(=O)N1 (centres unmarked) | 0.673 |
| CN1CCC(N2C[C@@H]3C[C@H](C2)c2cccc(=O)n2C3)CC1 | -0.711 |
| CC(C(=O)O)N1C(=O)CSc2ncccc21 (centres unmarked) | 0.0882 |
| O=Cc1c[nH]c2ccc(S(=O)(=O)N3CCCCC3)cc12 | -7.36 |
| CC1CCc2c(sc(NC(=O)c3cccc(S(=O)(=O)NCc4ccccc4)c3)c2C#N)C1 (centres unmarked) | -4.35 |
| Cc1cccc(-n2nnc(-c3nc(-c4cccnc4)no3)c2N)c1C | -1.87 |
| CCOC(=O)N1CCN(CCCCCCC=C(C)C)CC1 | -5.94 |
| N#CC1(c2ccccc2)CCc2c(sc3ncnc(Cl)c23)C1 (centres unmarked) | -3.75 |
| CCOc1cc(NC(=O)c2ccccc2C)c(OCC)cc1N | 1.92 |
| COc1ccc(-c2[nH]nc3nc(-c4ccc(C(F)(F)F)cc4)cc(C(=O)O)c23)cc1 | -1.19 |
| CCC(CC)C(=O)Nc1ccc(NC(C)=O)cc1 | -2.19 |
| CN(C)CCOC(=O)C12CC3CC(C)(CC(C)(C3)C1)C2 | -4.24 |
| O=c1cc(CSc2nc(NCc3ccccc3)c3ccccc3n2)nc2ccc(Cl)cn12 | -2.21 |
| NC(=O)Nc1ccccc1C(=O)Nc1ccc(F)cc1 | -6.57 |
| O=C(O)C1CC(=O)N(Cc2ccc3c(c2)OCO3)C1 (centres unmarked) | -2.58 |
| CC(=O)c1c(O)c2cccc3c2n(c1=O)C(C)CC3 (centres unmarked) | 5.66 |
| COc1ccc(CCC(=O)Nc2[nH]nc3nc4cc(OC)ccc4cc23)cc1 | -3.94 |

| Structure (SMILES) | % Inhibition @ 10 uM [%] |
| --- | --- |
| CCOc1ccc(-c2nc(C#N)c(NCCOC)o2)cc1 | 2 |
| Cc1cc(O)c(C2=NCCSC(c3ccc(Cl)cc3)C2)c(=O)o1 (centres unmarked) | -0.415 |
| COc1cc(C(=O)N2c3ccc(F)cc3CCC2C)cc(OC)c1OC (centres unmarked) | 0.13 |
| O=[N+]([O-])c1ccc(CN2CCN(c3ccc4ccccc4n3)CC2)cc1 | -4.96 |
| Cc1ccc2cc3cc(C(=O)NCCCOC(C)C)sc3nc2c1 | 7.07 |
| CCOC(=O)c1c(C)oc2nc(C)nc(NCCCN(Cc3ccco3)C(C)CC)c12 (centres unmarked) | 6.68 |
| COc1cc(CNC2CCCCC2)ccc1O | 0.777 |
| CCN(Cc1ccccc1)Cc1cccnc1 | -4.14 |
| COCCCNC(=O)CSc1nc2c(sc3ccccc32)c(=O)n1CCCC(=O)NCCO | 1.38 |
| O=C(O)c1ccc(N2C(=O)C3C4C=CC(CC4)C3C2=O)cc1 (centres unmarked) | 0.431 |
| Cc1c(C#N)c(/N=C/N(C)C)c(C(=O)c2ccccc2)n1-c1ccccc1 | -1.48 |
| CCN(CC)c1ncnc2scc(-c3ccccc3)c12 | -8.18 |
| CC(C)C[C@H]1C(=O)N[C@@H](CCCNC(=O)OC(C)(C)C)C(O)N1C(=O)OCc1ccccc1 (some centres unmarked) | 4.33 |
| COc1ccccc1NC(=O)COc1ccc(Cl)cc1Cl | -0.999 |
| CCNc1nc(OC)nc(Oc2ccc(=O)n(C)n2)n1 | 0.275 |
| N#CC1=C(N)N(c2ccccc2F)C2=C(C(=O)CCC2)C1c1ccccc1 (centres unmarked) | 4.08 |
| CCN(Cc1ccccc1)C(=O)Cn1nc(Cc2ccncc2)c2ccccc2c1=O | -6.52 |
| O=C(NCCSc1c[nH]c2ccccc12)c1ccc2c(c1)OCO2 | -2.49 |
| COc1ccc(CN2CCSCC2)c2ccccc12 | -2.34 |
| O=C(CCCc1ccccc1)Nc1cccc2ccccc12 | 1.33 |
| CCOC(=O)N1CCN(CCC(=O)c2ccc(Cl)cc2)CC1 | 6.78 |
| CC1=C(C(=O)OCCOc2ccccc2)C(c2c(Cl)cccc2Cl)CC(=O)N1 (centres unmarked) | 3.67 |
| Cc1ccc(CCNC(=O)C2CCCN(c3nnc(C)c4c(C)n(-c5ccc(C)cc5)nc34)C2)cc1 (centres unmarked) | 2.58 |
| c1ccc(C2NCCn3cccc32)cc1 (centres unmarked) | 4.57 |
| Cc1cc(OCC(=O)Nc2nc3ccccc3s2)cc(C)c1Cl | 14.6 |
| O=C1NCC(=O)N2CCCC12 (centres unmarked) | 4.84 |

| Structure (SMILES) | % Inhibition @ 10 uM [%] |
| --- | --- |
| O=C(NCc1ccccc1)N1CCC(N2CCCCC2)CC1 | -2.28 |
| Fc1ccccc1C1CC(c2cccnc2)Nc2nc3ccccc3n21 (centres unmarked) | -1.62 |
| Cc1cc(O)c2c(C)c(CC(=O)N3CCOCC3)c(=O)oc2c1 | -2.57 |
| COc1ccccc1C(=O)n1nc(-c2ccccc2)nc1NCc1ccccc1 | 0.628 |
| COc1ccc(C(C)C)cc1S(=O)(=O)Nc1cccnc1 | -6.02 |
| c1cncc(CNc2ccc3ccccc3c2)c1 | 3.44 |
| CC1=C(c2ccc(C)c(C)c2)S(=O)(=O)NC1=O | 0.0882 |
| O=C(Cc1ccccc1)Nc1ccc(Cc2ccc(NC(=O)Cc3ccccc3)c(C(=O)O)c2)cc1C(=O)O | 9.29 |
| CC(C)Cn1cc(NC(=O)NCCCN(C)C2CCCCC2)c2ccccc2c1=O | -3.31 |
| CCc1nc(N2CCOCC2)c(C#N)c2c1COC(C)(C)C2 | 3.76 |
| CC(C)c1ccc(N(CC(=O)N2CCCCCC2)S(=O)(=O)c2ccccc2)cc1 | 0.475 |
| CCOc1ccc(N(C(C)C(=O)Nc2ccc(Br)c(C)c2)S(C)(=O)=O)cc1 (centres unmarked) | 3.06 |
| O=C(CCn1c(=O)c2cccn2c2cccnc21)N1CCCCCC1 | -3.56 |
| CN(Cc1ccccc1)C(=O)Cn1cccc1C(=O)c1ccccc1 | -5.89 |
| CCCNC(=O)C1CCCN(c2nc3c(C)cc(C)cc3s2)C1 (centres unmarked) | 1.8 |
| CN1C(C(=O)NCc2cccs2)=CC(c2ccc(F)cc2)=NS1(=O)=O | 3.92 |
| Cc1cccc(N2C(=O)C3C(C2=O)C2C=CC3C23CC3c2ccccc2)c1 (centres unmarked) | -2.15 |
| C=CCSc1nc(O)c(C(C)CC)c(O)n1 (centres unmarked) | 14.5 |
| O=C1C2C3C=CC(C2C(=O)N1CCCO)C1C2C(=O)N(CCCO)C(=O)C2C31 (centres unmarked) | 0.291 |
| COc1cc(CNCc2c(C(=O)O)n(C)c3ccccc23)cc(OC)c1OC | -1.6 |
| CCCCCOc1ccc(NC(=O)C2C3C=CC(C3)C2C(=O)O)cc1 (centres unmarked) | -3.1 |
| COc1ccc(C2(C(=O)NC3CCCCC3)CCCC2)cc1OC | -6.43 |
| CC(C(=O)Nc1ccccn1)N1Cc2ccccc2C1=O (centres unmarked) | 2.87 |
| C=CCN1/C(=N\C(=O)C(C)(C)C)SC2CS(=O)(=O)CC21 (centres unmarked) | -2.92 |
| O=C(COc1ccc(S(=O)(=O)NC2CCCC2)cc1)NCc1ccc(Cl)cc1 | -1.61 |
| CSc1ccc(CCNC(=O)C2CCCN(S(=O)(=O)N3CCOCC3)C2)cc1 (centres unmarked) | 3.35 |

| Structure (SMILES) | % Inhibition @ 10 uM [%] |
| --- | --- |
| CCN1CCCC1CNC(=O)CSc1c2c(nc3ccc(Cl)cc13)CCCC2 (centres unmarked) | -4.96 |
| CCOc1cc(/C=C2\C(=N)N3N=C(S(C)(=O)=O)SC3=NC2=O)ccc1OC(C)c1ccccc1 (centres unmarked) | 3.48 |
| Cc1cc(/C=C2\NC(=O)NC2=O)c(C)n1-c1ccc(OCc2ccccc2Cl)cc1 | 13.9 |
| CC(/C=C(\O)c1cccnc1)=N\c1ccc(Br)c(Cl)c1 | -0.68 |
| CCc1[nH]nc2c1C(c1ccc(Cl)c(Cl)c1)C(C#N)=C(N)O2 (centres unmarked) | -5.34 |
| Cc1ccc2c(c1)c1c(n2C)C(O)CCC1 (centres unmarked) | -3.48 |
| Cc1ccc(NC(=O)c2cccs2)c(C)c1 | -5.84 |
| CNCCOC(c1ccc(F)cc1)c1ccccc1F (centres unmarked) | 0.343 |
| O=C(O)C1Cc2c([nH]c3ccccc23)C(c2ccccc2O)N1 (centres unmarked) | -1.45 |
| O=C(NCCC1=CCCCC1)C1CCN(c2ccc(-c3cccs3)nn2)CC1 | 3.49 |
| CSC1=C(C#N)C(c2ccccc2)C(C(C)=O)=C(C)N1 (centres unmarked) | 4.66 |
| O=C(CSc1nc(O)cc(O)n1)C12CC3CC(CC(C3)C1)C2 | 2.58 |
| COc1cc(C)nc(NC(=O)NS(=O)(=O)c2c(C)cc(Cl)nc2Cl)n1 | 0.503 |
| CN(C)CCN(Cc1ccccc1)Cc1cccc(Cl)c1Cl | 1.57 |
| C=C(Br)Cn1c(CCCNC(=O)c2ccco2)nc2ccccc21 | -1.22 |
| Cc1ccc(NC(=O)CN(c2cccc(C)c2C)S(C)(=O)=O)cc1Cl | 3.8 |
| CCOc1ccc2oc(-c3ccccc3)c(C(=O)O)c2c1 | 1.37 |
| CCCC(=O)Nc1ccc(C(=O)Nc2cc(C(F)(F)F)ccc2Cl)cc1 | -0.661 |
| Cc1cc(C)c(NC(=O)Nc2ccccc2)c(Cl)c1 | -5.92 |
| CCN(CC)CC(=O)Nc1c(C)cc(C)cc1C | -0.833 |
| CC(=O)c1c(C)[nH]c(C(=O)N2CCCCCC2)c1C | -2.29 |
| COc1cc2c(cc1OC)C(c1ccncc1)NCC2 (centres unmarked) | 3.31 |
| COc1ccc2[nH]c3c(c2c1)CCn1c-3nc2sc3c(c2c1=N)CCCC3 | -2.51 |
| CCN(CC)C(=O)CCCC(=O)c1c[nH]c2ccccc12 | -5.97 |
| COc1ccc(C2=N/C(=C/c3c(OC)ccc4ccccc34)C(=O)O2)cc1Br | 3.58 |
| O=C(COc1ccc(S(=O)(=O)NC2CCCC2)cc1)NCc1cccnc1 | -1.61 |
